Laboratory results as given in the supplement of paper PMC11417369.
The list shows a part of the results.

tested on: PF3D7_0420300 AP2 domain 1 (GST-tagged); test: gcPBM binding intensity (ln(normalized median fluorescence intensity)); higher = stronger DNA binding
In short: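 GST-fused DNA-binding domains of P. falciparum, expressed in E. coli, were applied at about 25 μg on average for 1 h to an Agilent 4 × 180k array of primer-extended double-stranded 36-bp intergenic genomic probes and negative controls. Binding intensity is the highest Masliner-normalised natural-log median intensity across replicate spots of either probe orientation, measured with Alexa488 anti-GST antibody and a 488 nm scan.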

Sequence	gcPBM binding intensity (ln)
AAAAAAAAAAGACACACACACATATTTATTTATATA [CACACA_site6484]	9.93
AATATATAAGTGTTGTGTACTAAAGTATTTTCCTAT [XGTACX_site1622]	9.5
TTTAATTAAATATGTATATATATTCATGTATGTATA [GTGCAC_negctrl_site14]	9.1
CATATACAGAAACACACACACACATAAATAAATATA [CACACA_site1343]	10.3
AGTAGATATAAAAGGAGTACACATATATATATAAAT [XGTACX_site4375]	9.74
ATGGGTATTAAGTGTACACATATAGTGTATTTTGTT [CACACA_site4452]	9.54
GTGTAAATATAATTAGTTTCACAAAACAAATATTTA [CACACA_negctrl_site717]	9.13
AGGCACAAAATTAAATGTACATATATATATATATAT [XGTACX_site3323]	9.08
TATATAAGAATATATACACACATATATGTATATATA [CACACA_site2178]	9.3
TTTTACAATGAAATATGTACTTAAATGTCCAAATTC [XGTACX_site781]	8.92
AAAAAGAAAAATTGCACACACTTATAAAAATATACG [CACACA_site6074]	9.59
GTTAACAAATAATGCACACAAATGGATAAAATTATA [CACACA_site3725]	9.53
TTAACCATTAATTCTCTACACACTTTTATTTTATTT [CACACA_site8522]	9.52
AATATAATTTTTTATTGTACAAAAAAATTATTTAAT [XGTACX_site3248]	8.94
TATTATTAATATGTATGGTTGTAATCTGTGTCTCCT [TGCATGCA_negctrl_site190]	9.35
AAGAACAAATATGAGGTGCAACACAATATATTATTA [GTGCAC_site9965]	9.45
TTTTTTTTTATCAAATGTACATATATATAATAATAA [XGTACX_site3941]	8.92
CATTTTGTAAGATATGCACACATGGATCATATTTTA [CACACA_site423]	9.25
AATAAGTATACACATACACACACACCCAAAAAAAAA [CACACA_site8034]	10.1

Sequence	gcPBM binding intensity (ln)
TATATACTCAAACACACACACACATACACAGACATA [CACACA_site5025]	10.1
ATTTTTTTTTTTTTTTTTTTTGCACCATAAAATAAT [CACACA_negctrl_site1324]	9.18
TATATATATATGTGTACACATTTGTCAGATTATATA [CACACA_site4813]	9.29
ATTTTGACATTATATAGTACATATAATTTACATTTA [XGTACX_site3024]	9.35
ATATATTTAAACAAAAGTACAAATCATAAATTCAAG [XGTACX_site3633]	9.24
TATATATTCTTTTAATGTACATATTGTATTATATCC [XGTACX_site4501]	9.35
TCTTTATCTTCTTATACACACATTTATTAAAAAAAA [CACACA_site445]	9.28
TGACATAAAAAATATACACACTATAATATTTATACT [CACACA_site6776]	9.44
ATTTTTTAAAAAGTAACACACACTCTTATATATAAT [CACACA_site9206]	9.49
GATTACTAGAAATGCACACACTGATAAAATAAGGAA [CACACA_site6131]	9.59
TATATATATGAGTATACACACCTGATAAAGGTATAT [CACACA_site5462]	9.42
TTAAACTTGAAACACACACACACACCGATATAAAAA [CACACA_site4578]	10.2
AGAAATATATCTATTTGTCCGTATATTCATATTTAT [XGTACX_site8427]	9.4
ATAAAAATATTGTCTAGTACATATTTATAATAAAAA [XGTACX_site7523]	8.88
AGATTGGAACATTAAAGTACTTACTTTTTTTTTTTT [XGTACX_site8017]	9.04
TATATTAGAAAGGATACACACATATATATATATCTA [CACACA_site570]	9.54
ATAACTTTTTAAAAGACACACATAAGAAAAACAAAA [CACACA_site723]	9.53
ATAAAACGAAGATGTTGTACGTACAAATAAATGAAT [XGTACX_site2472]	9.57
CAAAAGTAAGCACGCACACACAACATGAAATAAACT [CACACA_site6223]	9.99

Sequence	gcPBM binding intensity (ln)
TTAATTAATTTTTCAGTGCAAATAAAAAATATTTAA	8.67
TATACGCAGAAACACACACACATACACCCACATACA [CACACA_site1723]	10
TATCTTATAAACTCTGCACACATAATATATTAAATG [CACACA_site8587]	9.44
AACGTTCATAATTATTGTACCCTCATTTTATTTTTT [XGTACX_site503]	9.77
AAAAATTTTAATTAGGAACACACATATATATATATA [CACACA_site9016]	9.42
CTTAATAAGAATAAATGTACAAGGGATAAAAAATTT [XGTACX_site3213]	9.4
TATTTAATTATTTGTAGTACGATTAATATTTAATGA [XGTACX_site3553]	8.86
ATAGAATATTAATAATTAAAAATAAAATAAAATAAA [CACACA_negctrl_site1810]	9.22
ATATATATGTATGTATGTACACACAAAAAATGGAAT [XGTACX_site7879]	10
AAAAAAAAAAAAAAAACACACATTTTAAGAAAAAAA [CACACA_site2926]	9.25
TACAAAATAAATGGAACATGCAAAAAAATTGATTAA [TGCATGCA_site790]	9.4
ATATGCTATTATATATGTACACACCAATTTATTTAT [XGTACX_site8364]	9.63
ATATATATATGTTTGTGTACTTATGATATCATATAA [XGTACX_site3276]	9.4
TTAAAATAGCTAGTTTGTACATAAAATATATTACTT [XGTACX_site202]	9.12
AATATATATATATATATTTTTGTTAGAATATGGAAT [GTGCAC_negctrl_site434]	9.19
TTTTAAAAAATATAATAATATAAATATGTTTTATAC [CACACA_negctrl_site643]	8.86
TAAATAAATAAAAATAGTACATAATTATTATTATTA [XGTACX_site4981]	9.06
ATAATATAGAAACACACACACATATATATATACATT [CACACA_site555]	10.2
TTTATATATAAATATATATATATATATATATATATA [TGCATGCA_negctrl_site121]	8.67
